# Measurements as given in PubChem BioAssay AID488969 (Vanderbilt High Throughput Screening Facility, 2010).
# In all, about 110,000 compounds were measured (“z-score”: median about -0.1, highest 2% from about 2 on). Some of the results follow. Activity calls are given as the source filed them.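 How the source made its calls: active means z-score in the third read window above 3 or below -3; inactive means the rest.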
# Biological target: Metabotropic glutamate receptor 8 (Rattus norvegicus) (UniProt P70579)
# UniProt P70579, sequence (P70579 whole entry, looked up): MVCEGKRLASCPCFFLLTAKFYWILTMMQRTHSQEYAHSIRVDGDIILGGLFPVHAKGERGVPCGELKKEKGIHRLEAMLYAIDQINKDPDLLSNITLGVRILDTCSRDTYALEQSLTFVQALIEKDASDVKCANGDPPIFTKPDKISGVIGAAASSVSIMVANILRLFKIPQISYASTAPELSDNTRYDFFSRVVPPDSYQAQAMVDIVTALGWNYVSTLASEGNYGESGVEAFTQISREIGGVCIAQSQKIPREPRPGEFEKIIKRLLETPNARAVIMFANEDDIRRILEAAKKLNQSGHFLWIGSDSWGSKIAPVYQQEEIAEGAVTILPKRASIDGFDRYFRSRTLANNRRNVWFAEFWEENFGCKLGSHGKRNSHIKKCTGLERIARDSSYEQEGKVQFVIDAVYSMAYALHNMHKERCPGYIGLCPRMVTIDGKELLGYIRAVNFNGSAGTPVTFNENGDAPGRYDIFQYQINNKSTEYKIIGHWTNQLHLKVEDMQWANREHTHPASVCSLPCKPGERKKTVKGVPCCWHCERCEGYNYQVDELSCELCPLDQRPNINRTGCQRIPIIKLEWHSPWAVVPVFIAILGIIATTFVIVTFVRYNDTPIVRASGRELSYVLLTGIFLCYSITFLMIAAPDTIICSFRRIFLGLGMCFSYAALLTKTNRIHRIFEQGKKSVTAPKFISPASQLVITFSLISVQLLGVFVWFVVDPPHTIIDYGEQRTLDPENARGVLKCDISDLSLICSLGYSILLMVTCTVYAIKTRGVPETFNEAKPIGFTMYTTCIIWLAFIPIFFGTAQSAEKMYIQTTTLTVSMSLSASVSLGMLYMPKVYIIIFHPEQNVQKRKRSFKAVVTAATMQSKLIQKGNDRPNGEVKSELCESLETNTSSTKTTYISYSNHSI
# Assay: mGluR8 Gi/Go-coupled signaling modulation – cell-based, rat, thallium flux, HTS, primary screen (AID 488969)
# Conditions: HEK293 rat mGluR8, GIRK (G protein-gated inwardly rectifying potassium channel) thallium flux, FluoZin2; at 10 µM; stronger effect = higher value; submaximal glutamate (EC20) added with thallium
row,SMILES,z-score
1,CC(=O)Nc1ccc2c(c1)C(=O)N(C1CCCCC1)C2=O,-0.706
2,CCOc1cc2[nH]c(=S)n(CCN3CCCCC3C)c(=O)c2cc1OCC (stereo unspecified),0.258
3,CCOC(=O)C1CCCN(S(=O)(=O)c2cccs2)C1 (stereo unspecified),1.12
4,CC(NC(=O)CCSc1nc(-c2ccco2)cc(C(F)(F)F)n1)c1ccccc1 (stereo unspecified),-0.191
5,Cc1ccc(C(=O)OCc2nnc(-c3ccccc3)o2)o1,0.0679
6,S=C(NN=C(C1CC1)C1CC1)Nc1ccccc1,active: 4.43
7,O=C(CSc1nc2ccccc2s1)c1cc2ccccc2o1,-0.2
8,CCC1(c2ccccc2)NC(=S)N(c2cccc(C)c2C)N1 (stereo unspecified),1.26
9,CCOC(=O)c1c(/N=C/N(C)C)sc(/C=N/Nc2ccccc2)c1-c1ccc(Cl)cc1,0.0481
10,N#Cc1ccsc1NC(=O)COC(=O)c1cc2ccccc2cc1O,-0.0194
11,O=C(COC(=O)c1ccc(=O)n(Cc2ccccc2)n1)Nc1ccc2c(c1)OCCO2,-1.32
12,Cc1nc(N)nc(OCC(F)(F)C(F)F)c1Br,-0.145
13,Nc1c(C(=O)c2cccs2)oc2ccccc12,-0.109
14,CN(C)/C=C(\C#N)C(=O)c1cccnc1Oc1ccc(F)cc1F,0.0242
15,CCc1c(C(=O)Nc2ccc(OC)c(Cl)c2)[nH]c(C)c1C(C)=O,-0.335
16,O=C(Nc1ccc(Cl)cn1)c1cc(S(=O)(=O)N2CCCCC2)ccc1Cl,0.807
17,CCc1nc(NC(C)C)c2oc3ccccc3c2n1,-0.284
18,Cc1cccc(NC(=O)/C(=C\c2cccs2)NC(=O)c2ccccc2)c1,-0.272
19,CCOC(=O)c1ccc(N2Cc3ccccc3C2)cc1O,-0.0165
20,O=C(Nc1ccc(Cc2ccncc2)cc1)C1CCC(N2C(=O)C3C4C=CC(C4)C3C2=O)CC1 (stereo unspecified),-0.379
21,Nc1c(S(=O)(=O)c2cccs2)c2nc3ccccc3nc2n1Cc1cccs1,-1.05
22,Cc1cc(NC(=O)CSc2nc(C(C)C)nc3sc4c(c23)CCCC4)no1,-0.493
23,Cc1cccc(OCC(=O)Nc2ccc3c4c(cccc24)CC3)c1C,-0.0548

row,SMILES,z-score
1,Cc1ccnc(NS(=O)(=O)c2ccc(NC(=O)c3ccc(N4C(=O)CCC4=O)cc3)cc2)n1,-0.246
2,O=C(CCS(=O)(=O)c1cccc2nonc12)Nc1cccc2c1CCCC2,-0.699
3,Fc1ccc(NC(=S)N/N=C/c2ccc(F)c(F)c2)c(F)c1,active: 13
4,CC(C)c1ccc(C(=O)N(c2ccccn2)C(C)c2ccco2)cc1 (stereo unspecified),-0.451
5,Cn1c(=O)[nH]c(=O)c2c1nc(N1CCCCCC1)n2Cc1cccc2ccccc12,-1.43
6,COc1ccc(/C=C/C(=O)OCC(=O)NCc2ccco2)cc1OC,-0.183
7,COCCNc1ncnc2c1cnn2-c1ccc(Cl)cc1,0.0016
8,CCOC(=O)c1sc(NC(=O)c2ccc(C)o2)nc1C,-0.0466
9,CCCC(=O)NC(Nc1ccccc1OC)C(Cl)(Cl)Cl (stereo unspecified),-0.206
10,COc1ccc(OC(=O)c2cccnc2)cc1,-0.0966
11,O=C(Nc1cccc2ccccc12)N1CC=CCC1,-0.000291
12,CCN(C(=O)CSc1ncn[nH]1)C1CCCCC1,-0.31
13,CC(C)CC(NC(=O)c1cccs1)c1nnc(SCc2ccc(Cl)c(Cl)c2)n1C (stereo unspecified),-0.451
14,COc1ccc(C(=O)N[C@H](C(=O)Nc2nc3c(s2)CCCC3)C(C)C)cc1,-0.401
15,C=CCNC(=O)c1onc(CSc2ccc(F)cc2)c1C(=O)NCCOC,-0.188
16,COC(=O)CCC(=O)NNC(=O)c1cccc(Cl)c1,-0.0301
17,Cc1cccc(-n2c(C)cc(C=C3C(=O)c4ccccc4C3=O)c2C)c1,0.264
18,O=C(NCCCNC(=O)NC1CCCCC1)NC1CCCCC1,-0.38
19,COCCOc1cc(Nc2nnc(C(F)(F)F)s2)c(Cl)cc1Cl,-0.218
20,[O-]/C(=C(\C(=S)NCc1ccco1)[n+]1ccccc1)c1ccccc1Br,0.181
21,O=C(Cn1c(=O)[nH]c2ccsc2c1=O)N1CCN(c2ccc(F)cc2)CC1,0.356
22,CC(=O)c1c(C)nc2ccccc2c1N,0.205
23,CCCCNC(=O)CC(NS(=O)(=O)c1ccc(C)cc1)c1ccco1 (stereo unspecified),0.225

row,SMILES,z-score
1,Cc1csc(NC(=O)C2CCN(C(=O)CSc3nnc(C)n3Cc3ccccc3)CC2)n1,0.871
2,C=Cn1c(C(=O)O)cc(CC)c1-c1ccccc1,-0.157
3,Cc1cnc(C(=O)Nc2ccccc2-c2ccc(C)o2)cn1,-0.182
4,O=C(COc1ccc2c(c1)CCC2)N1CCN(c2ccccc2F)CC1,0.363
5,COc1cc(C=O)ccc1OCCSc1ccc(C)cc1,-0.427
6,CCC(Oc1ccc(C)c(C)c1)C(=O)O (stereo unspecified),-0.0336
7,COc1ccccc1CNC(=O)CCNC(=O)Cn1cnc2ccccc2c1=O,-2.9
8,CCN(CC)C(=O)CSc1ncnc2c1cnn2-c1ccccc1,-0.00204
9,Cc1ncc(N=Nc2ccc(F)cc2)c(-c2ccc(Cl)cc2)n1,-0.28
10,N#C/C(=C\c1ccc(Cl)cc1Cl)c1n[nH]c(Cn2cncn2)n1,-1.59
11,CC(=O)N(Cc1ccccc1)c1ccc(C(=O)O)cc1,-0.0088
12,Cc1cc(C(=O)CSc2nnc(-c3ccc4c(c3)OCO4)o2)c(C)n1-c1ccc(F)cc1,-0.128
13,Cc1nn2c([nH]c(=O)c3ccccc32)c1C=O,0.184
14,O=C(c1ccc(Cl)cc1)c1cnc(-c2ccc(Cl)cc2)s1,-0.111
15,O=c1[nH]nc(Cc2ccc(-c3ccc(Cl)cc3)o2)c2ccccc12,-0.067
16,CCOc1ccc(NC(=O)CN(C)c2ccc(S(=O)(=O)N3CCOCC3)cn2)cc1OCC,-0.527
17,C=CCNC(=O)CN(c1ccc(F)cc1)S(=O)(=O)c1ccc(OC)cc1,0.0947
18,O=C(NC1C(=O)NNC1c1ccccc1)c1ccccc1 (stereo unspecified),-0.136
19,Cc1cc(C)c(C#N)c(SCc2ccccc2)n1,-0.758
20,Cc1ccc(NC(=S)NC(NC(=O)c2ccco2)C(Cl)(Cl)Cl)cc1 (stereo unspecified),0.98
21,CC1(C)CC(=O)/C(=C\c2cccc([N+](=O)[O-])c2)C(C)(C)N1,-0.221
22,COCc1nc2ccccc2n1CCCOc1ccccc1,-0.414
23,COc1cc(C)c(Cl)c(C)c1S(=O)(=O)NCc1ccc2c(c1)OCO2,0.315

row,SMILES,z-score
1,CCOc1cc(S(=O)(=O)NCCc2cccc(C)c2)c(OCC)cc1-n1cnnn1,-1.22
2,CC(=O)NC(Cc1c[nH]c2ccccc12)C(=O)NCc1ccc2c(c1)OCO2 (stereo unspecified),0.203
3,Cc1cccc(OCC(=O)Nc2cc(C)c(C)cc2O)c1,0.318
4,CCN(CC)C(=O)c1sc(NC(=O)c2ccc(Br)o2)c(C(=O)OC)c1C,-0.165
5,O=C(CCc1ccc(S(=O)(=O)NC2CCCCC2)cc1)NCc1ccccc1,-0.277
6,Cc1cccc(N2CCN(C(=O)C3CCCCC3)CC2)c1C,-0.211
7,CCOc1ccc(NC(=O)N(CCC(C)C)C2CCN(C(C)=O)CC2)cc1,-0.426
8,CC(C)Oc1ccc(-c2cc(=O)[nH]c(=O)[nH]2)cc1,-0.397
9,C/C(=N\NC(N)=O)c1ccc(Cl)cc1,-0.78
10,CC(C)c1nc(SCC(=O)Nc2cccc(C(F)(F)F)c2)c2c(=O)n(C)c(=O)n(C)c2n1,-0.509
11,CC(OC(=O)c1cc2c(s1)CCCCC2)C(=O)NC(N)=O (stereo unspecified),-0.0656
12,COC(=O)C(NC(=O)COc1ccccc1)(Nc1nc2c(s1)CCCC2)C(F)(F)F (stereo unspecified),2.96
13,O=C(Cc1ccccc1)N/N=C/c1ccc(OCC(=O)Nc2ccccc2)cc1,-0.147
14,Cc1csc(SCC(=O)NC(=O)Cc2ccccc2)n1,-0.52
15,COc1ccc(N2CCN(C(=O)C34CCC(C)(C(=O)C3)C4(C)C)CC2)cc1 (stereo unspecified),-0.157
16,CCc1nccn1S(=O)(=O)c1cc(Br)ccc1OC,-0.405
17,CCOC(=O)c1sc(NC(C)=O)nc1-c1ccccc1,0.0747
18,CCOc1ccc(N=Nc2c(N)[nH][nH]c2=O)cc1,-0.154
19,Cc1cc(NC(=O)C2C3C(=O)N(Cc4ccc(Cl)cc4)C(C(=O)NCc4ccccc4)C34C=CC2(C)O4)no1 (stereo unspecified),0.193
20,Cc1nc(-c2ccc(NC(=O)c3ccccc3Br)cc2)cs1,-0.389
21,CC(C)(C)c1ccc(C(=O)NNC(=O)Cc2cccc3ccccc23)cc1,-0.0076
22,CCC(CC)c1nnc(NC(=O)/C=C/c2ccco2)s1,-0.154
23,O=C(CN(Cc1ccccc1)C1=NCCS1)c1ccccc1,-0.754

row,SMILES,z-score
1,COc1ccc(S(=O)(=O)N2CCCC(C(=O)O)C2)cc1Cl (stereo unspecified),-0.0148
2,CC12CCC(C(=O)N3CCN(C(=O)C45CCC(C)(C(=O)O4)C5(C)C)CC3)(OC1=O)C2(C)C,0.641
3,Cc1ccc2nc(-c3ccc(N4C(=O)CC(N5CCCC(C)C5)C4=O)cc3)sc2c1 (stereo unspecified),-0.124
4,COc1cccc(S(=O)(=O)Nc2ccc(C(=O)N3CCN(C(=O)c4ccco4)CC3)cc2)c1,-0.29
5,Cc1cccc(S(=O)(=O)Nc2nc3ccccc3nc2Nc2ccc3c(c2)OCO3)c1,-0.592
6,COc1ccc(C(C)(C)C)cc1NC(=O)c1cc(S(=O)(=O)N(C)C)ccc1N1CCCC1,-0.481
7,Cn1cccc1CC(=O)N/N=C/C(Cl)=C/c1ccccc1,0.188
8,CCOC(=O)c1cc2cc(OC)ccc2[nH]1,0.182
9,COc1ccc(NC(=O)c2ccccc2[N+](=O)[O-])cc1OC,-0.438
10,Cc1nnc(SCCn2c(Br)nc3c2c(=O)n(C)c(=O)n3C)s1,0.366
11,Cc1noc(C)c1C(=O)OCC(=O)Nc1cc(Cl)ccc1Oc1ccccc1,0.183
12,Cc1ccc(-c2noc(CSc3nc(N)cc(N)n3)n2)cc1,0.085
13,CC(=O)Nc1nonc1NC(=O)CSc1nc2ccccc2o1,-0.262
14,O=C(NNC(=O)c1ccccc1-n1cccc1)c1ccc(Cl)c(Cl)c1,0.0734
15,C#CCn1cc(/C=N/Nc2nc3ccccc3[nH]2)c2ccccc21,-0.392
16,Cc1cc(-c2ccccc2)nc(N(C)NC(=O)c2ccc(Cl)cc2)c1S(C)(=O)=O,-0.143
17,Cc1ccc(OCC(=O)c2cc(C)n(C3CC3)c2C)c([N+](=O)[O-])n1,-0.0663
18,O=c1cc(-c2ccccc2)nc(SCc2ccc(Cl)cc2)[nH]1,-0.183
19,COC(=O)c1ccc(Cl)c(NC(=O)CN(c2ccccc2)S(=O)(=O)c2ccc(OC)cc2)c1,-0.436
